Whole data set: some 33,000 sequences, median “E-score (-0.5 to 0.5)” near -0.041, cut for the highest 2% near 0.37. Some of the results follow.
Molecular target: T1, Ecm22 (UniProt Q05958)
T1 sequence: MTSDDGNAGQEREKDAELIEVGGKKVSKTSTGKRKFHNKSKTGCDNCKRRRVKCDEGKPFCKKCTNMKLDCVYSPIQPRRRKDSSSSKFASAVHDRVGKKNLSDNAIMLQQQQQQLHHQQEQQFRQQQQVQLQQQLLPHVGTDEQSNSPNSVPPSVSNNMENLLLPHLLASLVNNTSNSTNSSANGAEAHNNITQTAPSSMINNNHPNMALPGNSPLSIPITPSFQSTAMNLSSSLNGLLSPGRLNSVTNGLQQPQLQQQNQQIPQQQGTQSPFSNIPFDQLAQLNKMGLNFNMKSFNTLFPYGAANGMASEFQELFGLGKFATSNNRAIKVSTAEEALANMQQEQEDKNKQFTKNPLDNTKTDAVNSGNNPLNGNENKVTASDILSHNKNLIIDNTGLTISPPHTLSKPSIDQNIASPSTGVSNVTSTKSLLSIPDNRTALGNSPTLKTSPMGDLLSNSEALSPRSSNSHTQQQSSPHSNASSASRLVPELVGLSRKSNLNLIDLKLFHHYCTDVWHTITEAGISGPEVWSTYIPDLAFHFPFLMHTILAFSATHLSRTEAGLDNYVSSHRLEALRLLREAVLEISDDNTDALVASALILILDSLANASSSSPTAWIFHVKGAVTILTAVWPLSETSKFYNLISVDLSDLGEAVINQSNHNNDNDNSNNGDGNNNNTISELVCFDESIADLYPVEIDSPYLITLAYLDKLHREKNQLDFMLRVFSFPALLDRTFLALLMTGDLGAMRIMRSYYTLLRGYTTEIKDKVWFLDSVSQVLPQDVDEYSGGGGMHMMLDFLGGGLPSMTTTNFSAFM
Experiment: PBM E-score (8-mer binding enrichment) (E-score (-0.5 to 0.5)); higher = stronger / more preferred TF binding; most listed sequences are background and not binding sites
Conditions: protein concentration: 200 nM; construct: GST-full length
Method: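 Universal 'all 10-mer' protein binding microarrays (Agilent AMADID 015681) probed with GST-tagged S. cerevisiae TFs (full-length or DBD) made by in vitro transcription/translation (PURExpress), about 100-200 nM. Bound TF was detected with fluorescent anti-GST. Each ungapped 8-mer (which stands for itself and its reverse complement) is scored by the PBM enrichment score (E-score), a modified Wilcoxon-Mann-Whitney statistic from -0.5 to +0.5, computed with the Universal PBM Analysis Suite. Scale: above 0.35 generally sequence-specific binding.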

Sequence | PBM E-score
AGGGCCCC | -0.151
AGGGGTCC | -0.204
ACCGTTTG | 0.287
CCTGGCGA | -0.228
AAAGTTGC | -0.135
TACCGTCA | 0.124
TAGCTCAA | -0.185
AGCGTGAC | -0.0426
CAGGAACC | -0.171
CTCTTCCC | -0.205
CACGTCAA | -0.201
AATTGGTC | 0.0661
AGATCTAT | -0.047
ATATCCAT | 0.114
ACGCCATG | -0.0499
AAGCTTGG | 0.0237
CGCTGGTA | -0.192
AACCACCT | -0.195
AGGAGGAA | 0.0606
ACCCAAGT | 0.0144
AACGATCG | 0.364
ATACTGGG | -0.125
AACTAGTC | -0.126
AATATTAA | 0.214
AGCCTAAT | 0.0266

Sequence | PBM E-score
AACAACGC | 0.0745
CGGTCCAG | -0.0483
ATATATGA | 0.041
CTTTCGTA | 0.428
ACGCTAGG | -0.179
GACGTACC | 0.223
GCCAGGCA | -0.183
GTATGATA | 0.317
CACCCTTA | -0.101
ACGTCAAA | -0.013
GAAACTTC | 0.113
CGGGTACC | -0.134
ATCCGTCC | -0.139
ATTTCCAC | -0.018
AGCTCTTG | -0.286
ATTAAAGG | -0.0141
ACGGCGGC | 0.11
AGTGCTGA | -0.0779
ACGAACCG | 0.368
CCCTTACC | -0.0523
CCAATGGG | -0.289
AGACCTTA | -0.079
TATAATAA | 0.0844
AGATTACG | 0.166
TTTCCAAA | -0.0323

Sequence | PBM E-score
GATTTTGA | 0.126
CACGGCCG | 0.0371
AATTTATG | 0.186
AGGACGAC | -0.206
CATACGCA | 0.216
GTTGATGA | -0.0828
CATTCTCA | -0.0253
TATATAAA | 0.236
ACCTCACC | -0.0962
ACTCATGA | -0.0557
AGGCAAGA | -0.151
AAACTTAT | 0.0652
CATCCGCA | -0.0231
CGACGACG | 0.127
CTTTATTA | -0.177
TGGGTCAA | -0.255
GAGAGTTA | -0.123
CGAAAATA | 0.151
ACTCGCGC | 0.101
ATCTCTTC | 0.0412
CCATTACC | -0.104
AGATCAGC | -0.106
CGCGACGA | 0.244
CAAGCTAG | -0.0704
CAAACACA | -0.0009

Sequence | PBM E-score
AGAGTAGA | -0.105
AGGTCGCC | -0.21
CACGTTCC | 0.201
CATCTAGC | -0.143
ACCGGTTC | -0.176
ATGAAGCG | -0.131
AGCTAACA | -0.248
AGGCCAAT | -0.0341
CCGTTAGG | -0.035
GAGAGGGA | -0.212
ATCCCTAC | -0.111
CAATAGAC | -0.163
ACATCCCA | -0.169
AAGGCGTG | -0.0012
GGCTTTGA | 0.0523
CGACCCTC | 0.123
AACTAAGG | -0.039
GACGCCCA | -0.165
AGGCGAAC | 0.0808
CTAATAAA | -0.0877
GAGAAGCA | -0.132
TGTGAACA | 0.0599
CGGGTCAA | 0.0255
CACCTTAA | -0.103
GTGTTGGA | -0.253

Sequence | PBM E-score
TACGTAAA | 0.291
GTCGACAC | 0.18
CATCGTAC | 0.458
AATTATGG | -0.231
CCAGCCCC | -0.184
TGGTCAAA | -0.00875
ATATTCAG | -0.0222
ATGAGTCA | -0.215
CCCACCAG | 0.0147
GTCAGCGA | -0.206
ACGGGACG | 0.232
AATCAGGG | -0.29
ATGAATTG | -0.027
GCACCCCA | 0.0124
AGGTCTAA | 0.00436
ACATGCCC | -0.0896
CCCGTAGA | -0.00351
ACCACGGT | -0.195
ACAATCGC | 0.226
CAAGTCCG | -0.0213
AAATATGT | 0.251
AAAATACT | -0.198
ACCGCACA | -0.0742
ACCTATTC | 0.0363
AAAGGCTA | -0.194

Sequence | PBM E-score
GATTCTAA | 0.0816
GTCATTGA | -0.121
AAATCGGA | 0.0916
AAGTCCGG | -0.147
AGTAAGAG | -0.101
AACATAGG | -0.0983
CACACCGC | 0.00932
TAAACTGA | -0.00079
GCGTCACA | -0.0587
CCTCCAAA | 0.0418
ACGTCGGC | 0.0782
ACGCTCGA | 0.0433
AGTTGTAG | -0.125
GCTGCGCA | -0.183
ACAAGGGA | -0.202
GCTAAGTA | -0.0177
CCTTTGCA | -0.0826
AGCTGACA | -0.112
AGCGGCCT | -0.18
CCGTATTC | 0.282
ACAGCACA | 0.0791
GCCCCGCA | -0.164
CGGCTTTA | 0.0433
ATCTGTAA | -0.0737
ACTTAGCT | -0.147

Sequence | PBM E-score
ACCTGTCT | -0.1
AACTAACG | 0.141
GCCTAGGA | -0.275
CAATTGAG | -0.015
CTGCTTGC | -0.103
ACACCCCG | -0.0824
ATGGGCAG | -0.0905
CCAAACGA | 0.437
CCCGAAGA | 0.0524
GCGAGAAC | 0.242
TACGGCCA | 0.245
GCATCCGA | 0.0366
AGTCGACC | -0.112
GTAACACA | 0.099
CGGACTGA | -0.0426
AACAGTAG | 0.0314
CGCCCCTA | -0.104
CAAGAGAA | 0.177
ACGACGTC | 0.393
CGTACTGA | 0.32
CGATCGGC | -0.0318
GGACTAAA | -0.133
AATCAGAG | -0.0473
AAAGTCGC | 0.0917
ATCTATCG | 0.0416

Sequence | PBM E-score
ACGGAGCT | 0.0831
AAGCCCCA | -0.2
ATTTTCTG | -0.00936
ATAACTGC | -0.245
AGCAAGTC | -0.228
TGGCTCAA | -0.132
AATCTGAT | -0.156
CCTCTTAC | 0.0146
CGTTCAAA | 0.361
AGTTCCTG | -0.175
CATTGCGA | 0.00848
GGATTCCC | -0.208
CATTGAGA | -0.0539
GGGTTAAC | 0.0136
AGCAAACA | 0.0546
CCAGGTCA | -0.311
CAGCGTCA | -0.262
GCTCTGCC | -0.222
CCCTAGCA | -0.154
GTGTAGAA | 0.0801
CTATAGAC | -0.141
CGACGAAG | 0.247
GGTTTGCA | 0.157
AGCTTGGG | -0.0421
ACTACCTA | -0.0511

Sequence | PBM E-score
GAAATGAA | 0.161
CAGAATGA | -0.0254
ATCCTTGC | -0.167
AACCATTG | -0.0764
AATTACCC | -0.0882
CCAAAGCA | -0.196
CCAGAACC | -0.088
CACGGGGC | -0.188
CGCCGTGA | -0.142
AGAGGTCA | -0.166
CACGCGTC | 0.069
GGGTAACA | -0.012
ATATAATA | -0.00075
CGCCATGC | -0.137
ATCACTTC | -0.0396
AGACCCTC | -0.206
CCCTTAAC | -0.118
GGGGGACA | -0.0351
CGCCTTAA | 0.117
